Laboratory results published in PubChem BioAssay AID1460 (National Center for Advancing Translational Sciences (NCATS), 2008).
About 5,800 (2.1%) of roughly 270,000 compounds were called active. Inconclusive means that the source gave no clear call. Such entries were picked first, then a sample of the others. Calls come from the whole dose curve; as a rule, active = well fitted inhibition curve with a large enough effect; inconclusive = small, poorly fitted or top-dose-only effect; inactive = flat fitted curve, though single readings scatter. Potencies beside an inconclusive call are fits to weak or partial responses and may not hold up.

target: Microtubule-associated protein tau (Homo sapiens) (UniProt P10636); assay: qHTS for Inhibitors of Tau Fibril Formation, Thioflavin T Binding; settings: recombinant tau K18 P301L (four-repeat tau fragment), heparin-induced fibrillization, ThT fluorescence; series mostly up to 57.4 µM; activity, negative = inhibition: at the top concentration; note: nearly all actives have a fitted effect of over 55% in size
Chain of UniProt P10636 (P10636 whole entry, looked up, the tested form may be a part): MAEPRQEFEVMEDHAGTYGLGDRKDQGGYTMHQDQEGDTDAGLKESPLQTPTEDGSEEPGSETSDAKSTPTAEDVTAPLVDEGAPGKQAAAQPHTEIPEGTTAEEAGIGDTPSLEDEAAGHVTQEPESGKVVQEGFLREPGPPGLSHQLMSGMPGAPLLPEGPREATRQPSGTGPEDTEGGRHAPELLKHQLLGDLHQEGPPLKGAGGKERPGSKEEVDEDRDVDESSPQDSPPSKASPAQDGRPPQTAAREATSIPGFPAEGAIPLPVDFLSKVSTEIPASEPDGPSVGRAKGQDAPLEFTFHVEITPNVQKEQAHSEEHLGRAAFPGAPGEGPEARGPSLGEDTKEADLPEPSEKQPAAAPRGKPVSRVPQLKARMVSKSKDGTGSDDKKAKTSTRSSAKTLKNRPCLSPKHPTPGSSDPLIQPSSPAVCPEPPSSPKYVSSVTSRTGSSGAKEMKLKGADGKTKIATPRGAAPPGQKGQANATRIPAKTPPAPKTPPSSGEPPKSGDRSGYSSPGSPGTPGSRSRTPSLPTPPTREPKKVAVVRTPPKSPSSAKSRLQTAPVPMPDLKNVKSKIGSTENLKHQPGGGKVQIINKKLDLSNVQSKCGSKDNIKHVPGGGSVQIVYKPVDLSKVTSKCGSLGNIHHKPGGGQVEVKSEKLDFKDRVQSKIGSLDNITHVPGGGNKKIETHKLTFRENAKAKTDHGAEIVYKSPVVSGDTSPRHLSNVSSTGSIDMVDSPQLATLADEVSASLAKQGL
How it was run: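 K18 P301L tau (15 uM + 0.24 uM Alexa 594-tagged), heparin 20 uM, NaOAc pH 7, 6 h 37 C; ThT 30 uM, 1 h RT, ex 450/em 510 nm.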
% is set by controls: 0 for no effect and ±100 for the full control effect; potency is the fitted concentration of half-maximal effect; tags give direction and shape of the fitted curve.

Structure (SMILES)	activity, negative = inhibition	Potency
O=C(CN1CCN(Cc2ccccc2Cl)CC1)N/N=C/c1cccs1	inactive: -15.2%	
Cc1ccc(OCCn2cc(Br)c(=O)[nH]c2=O)cc1	inactive: -9.17%	
Cc1ccc2nc(N3C(=O)CNC3=S)sc2c1		inconclusive: 11.2 µM [inhibitor, partial curve]
CCn1c(C)[n+](CC)c2ccc(C(=O)N(C)c3ccccc3)cc21	inactive: -12.6%	
COc1cccc(NC(=O)Nc2cc(C(=O)O)ccc2C)c1		inconclusive: 12.6 µM [inhibitor, partial curve]
Cc1ccc2ccc(S(=O)(=O)n3nc(C)cc3C)cc2c1	inactive: -12.9%	
COc1cc(CN(C)C)cc(C=O)c1O		inconclusive: 15.8 µM [inhibitor, partial curve, poor fit]
C#CC(=O)N(c1ccc(OC)cc1OC)C(C(=O)NC1CCCC1)c1cccs1 (configuration not stated)		inconclusive: 20 µM [inhibitor, partial curve]
Cc1ccc(CNC(=O)CCCNS(=O)(=O)c2cccc3nonc23)cc1	inactive: 6.63%	
Cn1c(=O)c2c(-c3ccc(Cl)cc3)n(CCc3ccccc3)cc2n(C)c1=O		inconclusive: 10 µM [inhibitor, partial curve]
CCOc1ccc(C(=S)N2CCCC2)cc1	inactive: -9.67%	
Cc1ccc2nc(Cl)c3cc(C(=O)N4CCCCC4)sc3c2c1		inconclusive: 15.8 µM [inhibitor, partial curve]
O=C(Nc1ccc(-c2csc(Nc3ccc(Cl)cc3)n2)cc1)c1cccc(C(F)(F)F)c1		inconclusive: 2.51 µM [inhibitor, full curve]
COc1c(F)c(F)c(C(=O)Nc2ccc(N3CCN(C(C)=O)CC3)c(Cl)c2)c(F)c1F		inconclusive: 28.2 µM [inhibitor, partial curve, poor fit]
CCn1c2ccccc2c2cc(NC(=O)COC(=O)c3cccc(S(=O)(=O)NC)c3)ccc21		inconclusive: 14.1 µM [inhibitor, partial curve]
Cn1c(=O)c(/C=C/c2ccc(F)cc2)nc2ccccc21		inconclusive: 6.31 µM [inhibitor, partial curve]
O=C(OC(C(=O)Nc1cccc(C(F)(F)F)c1)c1ccccc1)C1CCCCC1 (configuration not stated)	inactive: -2.39%	
O=C(OCC(=O)N1CCc2ccccc21)c1c2c(nc3ccccc13)CCCCC2		inconclusive: 10 µM [inhibitor, partial curve]
Cc1cccc(/C=N/NC(=O)CNc2cccc3ccccc23)n1		inconclusive: 22.4 µM [inhibitor, partial curve]
Cc1ccc(-n2c(N)c(C(N)=O)sc2=S)cc1		inconclusive: 35.5 µM [inhibitor, single point]
COC(=O)C1=C(Cn2cnc3ccccc32)NC(=O)NC1c1cc(C)ccc1C (configuration not stated)	inactive: -3.89%	
N#CC1=C(N)SC(N)=C(C#N)C1C1C=CCCC1 (configuration not stated)	inactive: -8.32%	
CC(C)c1ccc(Nc2c(-c3ccccn3)nc3ccccn23)cc1		inconclusive: 28.2 µM [inhibitor, partial curve, poor fit]
CC(=O)c1ccc(NS(=O)(=O)c2cccc(C)c2)cc1		inconclusive: 7.94 µM [inhibitor, partial curve]

Structure (SMILES)	activity, negative = inhibition	Potency
COc1ccc2c(c1[N+](=O)[O-])CCC/C2=N/OC(=O)c1cccc2ccccc12		inconclusive: 12.6 µM [inhibitor, partial curve]
CCOC(=O)C(CC)Sc1nc2c(c(=O)[nH]c(=O)n2C)n1C/C=C(/C)Cl (configuration not stated)	inactive: -14.8%	
CCOC(=O)c1c(C)oc2nc(C)nc(NCCCN3CCN(c4cc(C)ccc4C)CC3)c12		inconclusive: 10 µM [inhibitor, partial curve]
COc1cc(/C=C/C(=O)Nc2nnc(CC(C)(C)C)s2)cc(OC)c1OC	inactive: -2.66%	
Cc1onc(-c2ccccc2Cl)c1C(=O)c1ccccc1	inactive: -5.13%	
Cc1occc1C(=O)N/N=C/c1ccc(N(C)C)cc1		inconclusive: 15.8 µM [inhibitor, partial curve]
Cc1oc(-c2ccc(C(F)(F)F)cc2)nc1CN(Cc1ccccn1)C[C@@H]1CCC(=O)N1	inactive: -8.96%	
CN1C(=S)N(c2cccnc2)C(=O)/C1=C\c1ccc(N(C)C)cc1		active: 3.98 µM
COc1ccc(CCNC(=O)C(=O)NCC(c2cccs2)S(=O)(=O)c2ccc(F)cc2)cc1 (configuration not stated)	inactive: -2.43%	
CCN(CCO)C1CC(=O)N(c2ccccc2C)C1=O (configuration not stated)		inconclusive: 20 µM [inhibitor, partial curve]
COc1ccc(Nc2nc3ccccc3n3cnnc23)cc1		inconclusive: 31.6 µM [inhibitor, partial curve]
CC1Cn2c(C(=O)NCc3ccccc3Cl)cc3cccc(c32)S1 (configuration not stated)	inactive: 3.62%	
O=C(NCCO)c1ccc2nc(-c3ccco3)c(-c3ccco3)nc2c1		active: 15.8 µM
COc1cccc(CN2CCN(Cc3cc(OC)c(OC)cc3[N+](=O)[O-])CC2)c1	inactive: -5.25%	
O=[N+]([O-])c1ccc(/C([O-])=C(/C(=S)Nc2ccccc2F)[n+]2ccccc2)cc1		inconclusive: 17.8 µM [inhibitor, partial curve]
CCC(Sc1nc2n[nH]c(C)c2c(=N)n1-c1ccccc1Cl)C(=O)N(CC)CC (configuration not stated)	inactive: -9.58%	
CC(C)Oc1ccc(C(=O)OC(C)C(=O)Nc2nc(-c3cccc([N+](=O)[O-])c3)cs2)cc1 (configuration not stated)		inconclusive: 5.62 µM [inhibitor, partial curve]
COc1cc2c(cc1OC)C(/C=C/c1ccc(OC)c(OC)c1OC)=NCC2		inconclusive: 12.6 µM [inhibitor, partial curve]
Cn1c(=O)c(/C(N)=N/OC(=O)c2ccccc2)cn(-c2ccccc2)c1=O		inconclusive: 22.4 µM [inhibitor, single point]
CC1=NN(c2ccccc2)C(=O)C1C=Nc1ccccc1O (configuration not stated)		inconclusive: 17.8 µM [inhibitor, partial curve, poor fit]
Cn1c(O)c(N=Nc2nc(-c3ccccc3)cs2)c2ccccc21		active: 2 µM
COc1ccc(Nc2oc(COc3ccc(Cl)cc3)nc2C#N)cc1		inconclusive: 25.1 µM [inhibitor, partial curve]
COCCNC(=S)NC(=O)CC12CC3CC(CC(C3)C1)C2	inactive: -16.9%	
Cc1cccn2cc(COc3ccc(-c4ccccc4)cc3)nc12		inconclusive: 4.47 µM [inhibitor, full curve, poor fit]

Structure (SMILES)	activity, negative = inhibition	Potency
CCCCCN1C(C(=O)c2ccccc2)=C(OC(=O)CC)c2ccccc2S1(=O)=O		inconclusive: 10 µM [inhibitor, partial curve]
COc1cc(OC)c(NC(=O)CCc2c(C)nc3c4c(C)cc(C)nc4nn3c2C)cc1Cl		inconclusive: 15.8 µM [inhibitor, single point]
COc1ccc2oc(/C=C/N(C)C)c(C(=O)c3ccc(Cl)cc3)c2c1	inactive: -8.84%	
CCc1ccc2c(c1)C(c1ccc(N3CCOCC3)cc1)=NNC(c1ccncc1)=N2		inconclusive: 12.6 µM [inhibitor, partial curve]
CC(NC(=O)c1ccc2c(c1)sc1nc(-c3ccc(F)cc3)cn12)C12CC3CC(CC(C3)C1)C2 (configuration not stated)	inactive: -0.465%	
O=[N+]([O-])c1ccc2c(c1Nc1ccccc1)=NC1(CCCCC1)N=2		inconclusive: 3.16 µM [inhibitor, full curve]
Cc1cc(-c2nn(-c3ccccc3F)cc2CN2CCCC(CO)C2)c(C)s1 (configuration not stated)		active: 7.94 µM
CSCc1ccc(C(=O)Nc2cccc(C)c2C)cc1		inconclusive: 39.8 µM [inhibitor, single point]
Cc1ccccc1-c1nnc(SCCOc2ccc3c(C)cc(=O)oc3c2)o1		inconclusive: 2.51 µM [inhibitor, full curve]
CC1(N2CCOCC2)CC2(O)C(=[N+]1[O-])CCc1nonc12 (configuration not stated)		inconclusive: 22.4 µM [inhibitor, partial curve]
O=C(Nc1ccc(N2CCCC2)cc1)c1ccc([N+](=O)[O-])cc1Cl		inconclusive: 0.562 µM [inhibitor, full curve]
CCN1CCCc2cc(CN(CCN3CCOCC3)C(=O)Nc3ccc(C)c(C)c3)ccc21		inconclusive: 14.1 µM [inhibitor, partial curve]
Cc1cc(C)c2c(CC(=O)Nc3cc(C(F)(F)F)ccc3Cl)coc2c1	inactive: 13.4%	
CCCN1C(=O)S/C(=C\c2ccc(N3CCOCC3)o2)C1=O		active: 17.8 µM
COc1ccc(C(=O)Nc2cccc(C(=O)OCc3cc(=O)n4c5c(sc4n3)CCCC5)c2)cc1		inconclusive: 0.891 µM [inhibitor, full curve]
Cc1ccc(OCc2nc(-c3ccc(-n4cccc4)cc3)no2)cc1C		inconclusive: 0.562 µM [inhibitor, partial curve]
Nc1ccc(C(=O)N/N=C\c2cc(N=Nc3cccc4ccccc34)ccc2O)cc1		active: 3.16 µM
COc1ccnc(CS(=O)c2nc3ccc(OC(F)F)cc3[nH]2)c1OC (configuration not stated)		active: 25.1 µM
CC(=O)N1N=C(c2ccco2)CC1c1cccs1 (configuration not stated)		inconclusive: 39.8 µM [inhibitor, single point]
CCOC(=O)c1sc2nc(C)cc(C)c2c1N		inconclusive: 20 µM [inhibitor, single point]
CCOC(=O)c1c(NS(=O)(=O)c2cccc(OC)c2)sc2c1CCC2		inconclusive: 17.8 µM [inhibitor, single point]
O=C1C(Cl)=C(Nc2ccc(O)cc2)C(=O)c2ccccc21		active: 2 µM
COc1ccc(-n2ncc3c(NCc4ccccn4)ncnc32)cc1		inconclusive: 17.8 µM [inhibitor, partial curve, poor fit]
CCOC(=O)c1ccc(N2Cc3ccccc3C2=NC(=O)c2ccncc2)cc1		inconclusive: 8.91 µM [inhibitor, partial curve]
